Measurements: publication PMC9156729
Results are given in words; binding and its absence hold for the method and conditions named. In cells and extracts the contact can be indirect. Some results given as binding are weak or reduced against the parent protein; the word gives no strength. For part of these data: Tags and fused reporters may be left off the sequences shown. Each block holds one binder with its values, some of them ahead of it.

Chains of the proteins cited; added tags and fusions are not shown. Lines headed by an entry give the natural chain unless they say otherwise; changes in a name come on top.
UniProt O43791: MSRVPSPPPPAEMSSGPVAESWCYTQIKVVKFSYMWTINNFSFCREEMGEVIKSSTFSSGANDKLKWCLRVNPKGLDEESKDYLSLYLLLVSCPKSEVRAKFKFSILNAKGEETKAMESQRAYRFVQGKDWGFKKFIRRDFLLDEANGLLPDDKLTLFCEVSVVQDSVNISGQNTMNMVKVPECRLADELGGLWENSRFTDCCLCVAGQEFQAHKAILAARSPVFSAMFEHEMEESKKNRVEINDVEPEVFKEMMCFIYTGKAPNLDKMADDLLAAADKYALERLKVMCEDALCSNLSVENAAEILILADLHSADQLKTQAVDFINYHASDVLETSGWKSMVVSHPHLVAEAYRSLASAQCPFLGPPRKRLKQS
UniProt P48729: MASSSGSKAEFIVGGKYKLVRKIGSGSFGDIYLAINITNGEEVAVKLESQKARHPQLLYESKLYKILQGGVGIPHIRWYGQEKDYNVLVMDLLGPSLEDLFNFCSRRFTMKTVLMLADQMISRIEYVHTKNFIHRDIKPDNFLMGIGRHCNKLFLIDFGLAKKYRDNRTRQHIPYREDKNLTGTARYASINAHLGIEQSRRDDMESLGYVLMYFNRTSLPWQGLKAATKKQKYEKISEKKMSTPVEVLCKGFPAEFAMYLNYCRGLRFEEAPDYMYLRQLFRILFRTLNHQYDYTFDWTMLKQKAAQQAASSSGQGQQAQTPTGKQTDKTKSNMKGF
UniProt P48730: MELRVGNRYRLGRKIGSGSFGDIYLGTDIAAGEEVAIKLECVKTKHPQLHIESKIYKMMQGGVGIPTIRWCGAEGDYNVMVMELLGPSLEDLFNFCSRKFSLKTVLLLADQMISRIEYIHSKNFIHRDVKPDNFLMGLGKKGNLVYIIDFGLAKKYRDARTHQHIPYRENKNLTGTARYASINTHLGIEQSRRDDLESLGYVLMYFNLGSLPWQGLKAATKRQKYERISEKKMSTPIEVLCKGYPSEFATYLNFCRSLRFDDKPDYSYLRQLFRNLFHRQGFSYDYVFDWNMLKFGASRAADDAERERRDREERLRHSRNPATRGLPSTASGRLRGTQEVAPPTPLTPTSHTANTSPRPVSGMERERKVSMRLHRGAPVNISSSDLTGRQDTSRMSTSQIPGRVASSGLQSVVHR
UniProt P49674: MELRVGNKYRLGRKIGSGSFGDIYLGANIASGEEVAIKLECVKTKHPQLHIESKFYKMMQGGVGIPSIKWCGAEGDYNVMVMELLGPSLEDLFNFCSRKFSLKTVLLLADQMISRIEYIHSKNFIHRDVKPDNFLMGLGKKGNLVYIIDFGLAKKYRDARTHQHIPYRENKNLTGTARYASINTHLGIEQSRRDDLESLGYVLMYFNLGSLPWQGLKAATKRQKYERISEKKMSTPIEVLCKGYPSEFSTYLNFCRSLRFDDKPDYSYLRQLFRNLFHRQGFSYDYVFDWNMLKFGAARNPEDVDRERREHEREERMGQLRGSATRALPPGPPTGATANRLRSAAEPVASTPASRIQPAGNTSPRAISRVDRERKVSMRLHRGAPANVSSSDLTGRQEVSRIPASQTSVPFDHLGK

What was measured:
[1] = target: FLAG-SPOP, wild type (UniProt O43791); assay: co-IP; HEK293 cells transfected with plasmids; IP lysis buffer (50 mM Tris-HCl pH 8.0, 120 mM NaCl, 0.5% NP40, 1 mM EDTA); FLAG-agarose beads overnight at 4 °C; immunoblot
[2] = target: FLAG-SPOP, wild type (UniProt O43791); assay: condition: only cells treated with the CK1 inhibitor D4476 for 12 h; co-IP; HEK293 cells transfected with FLAG-SPOP and HA-ASCT2 and treated with the CK1 inhibitor D4476 for 12 h before harvesting; FLAG-agarose beads; immunoblot
[3] = target: FLAG-CK1α (UniProt P48729); assay: co-IP; HEK293 cells transfected with plasmids; IP lysis buffer (50 mM Tris-HCl pH 8.0, 120 mM NaCl, 0.5% NP40, 1 mM EDTA); FLAG-agarose beads overnight at 4 °C; immunoblot
[4] = target: FLAG-CK1δ (UniProt P48730); assay: as above
[5] = target: FLAG-CK1ε (UniProt P49674); assay: as above
[6] = target: FLAG-SPOP E78K (UniProt O43791); assay: as above

binding [1]: binds | binding [2]: no binding
B1: HA-ASCT2, wild type (protein, UniProt Q15758 1-541)
chain: MVADPPRDSKGLAAAEPTANGGLALASIEDQGAAAGGYCGSRDQVRRCLRANLLVLLTVVAVVAGVALGLGVSGAGGALALGPERLSAFVFPGELLLRLLRMIILPLVVCSLIGGAASLDPGALGRLGAWALLFFLVTTLLASALGVGLALALQPGAASAAINASVGAAGSAENAPSKEVLDSFLDLARNIFPSNLVSAAFRSYSTTYEERNITGTRVKVPVGQEVEGMNILGLVVFAIVFGVALRKLGPEGELLIRFFNSFNEATMVLVSWIMWYAPVGIMFLVAGKIVEMEDVGLLFARLGKYILCCLLGHAIHGLLVLPLIYFLFTRKNPYRFLWGIVTPLATAFGTSSSSATLPLMMKCVEENNGVAKHISRFILPIGATVNMDGAALFQCVAAVFIAQLSQQSLDFVKIITILVTATASSVGAAGIPAGGVLTLAIILEAVNLPVDHISLILAVDWLVDRSCTVLNVEGDALGAGLLQNYVDRTESRSTEPELIQVKSELPLDPLPVPTEEGNPLLKHYRGPAGDATVASEKESVM

binding [3]: no binding | binding [4]: binds | binding [5]: no binding | binding [6]: binds
B2: ASCT2 in HEK293 lysate (no ASCT2 plasmid named for the experiment) (protein, UniProt Q15758 1-541)
chain: B1 chain
